Laboratory results from PubChem BioAssay AID1159580 (chemical genetic matrix, 2015).
Screen size: about 5,500 compounds; about 2,000 (36%) were called active. The inconclusive results got no clear call from the source; some entries with a clear call stand among them for comparison. No stated cut-off is given here; in the data, active means normalized growth mostly below about 0.91 (no sharp cut-off); inconclusive means no clear call, values can overlap the other calls; inactive means mostly above about 0.92. Some compounds were tested as several samples or in several runs, with calls that do not always agree.

Assay: chemical genetic growth profiling, strain panel (AID 1159580);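 further: tested at 20 µM; growth read once vehicle control cultures reached saturation at 30 °C; 1 = growth at the plate median or of vehicle wells; lower values mean less growth of the strain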
Details: S. cerevisiae deletion strains, growth OD
[1] = locus YMR263W, strain SAP30, hits give low values
[2] = locus YAR019C, strain CDC15, hits give low values
[3] = locus YDL101C, strain DUN1, hits give low values
[4] = locus YDL132W, strain cdc53, hits give low values
[5] = locus YDR054C, strain cdc34, hits give low values
[6] = locus YFL009W, strain cdc4, hits give low values
[7] = locus YFL029C, strain CAK1, hits give low values
[8] = locus YKL193C, strain SDS22, hits give low values
[9] = locus YMR277W, strain FCP1, hits give low values
[10] = locus YOL078W, strain AVO1, hits give low values
[11] = strain TSCII, hits give low values
[12] = locus YNL183C, strain NPR1, hits give low values
[13] = locus YNL197C, strain WHI3, hits give low values
[14] = locus YCL061C, strain MRC1 (second series), hits give low values
[15] = locus YNL175C, strain NOP13, hits give low values
[16] = locus YBL061C, strain skt5, hits give low values
[17] = locus YAL040C, strain CLN3, hits give low values
[18] = locus YOR083W, strain WHI5 (second series), hits give low values
[19] = locus YLR113W, strain HOG1, hits give low values

Q: For `Cc1[nH]n(C)c(=O)c1N=Nc1ccc(Cl)cc1`, which normalized growth [1] is on record?
A: Its normalized growth is inconclusive: 0.777 [sensitive].

Q: Which normalized growth [1] does the source give for `CCOC(=O)c1sc(-c2ccc(C)cc2)nc1O` here?
A: The normalized growth was inconclusive: 0.537 [sensitive].

Q: For `Oc1c(Br)cc(Br)cc1C=Nc1ccccn1`, which normalized growth [2] is on record?
A: Its normalized growth is inconclusive: 0.757 [sensitive].

Q: What about the normalized growth [3] of the same molecule?
A: The normalized growth was inconclusive: 0.611 [sensitive].

Q: What about the normalized growth [4] of the same molecule?
A: The normalized growth was inconclusive: 0.606 [sensitive].

Q: What about the normalized growth [5] of the same molecule?
A: Its normalized growth is inconclusive: 0.579 [sensitive].

Q: What about the normalized growth [6] of the same molecule?
A: Its normalized growth is inconclusive: 0.533 [sensitive].

Q: What about the normalized growth [7] of the same molecule?
A: Its normalized growth is inconclusive: 0.622 [sensitive].

Q: And the normalized growth [8]?
A: The normalized growth was inconclusive: 0.863 [sensitive].

Q: And the normalized growth [9]?
A: Its normalized growth is inconclusive: 0.879 [sensitive].

Q: And the normalized growth [10]?
A: Its normalized growth is inconclusive: 0.637 [sensitive].

Q: And the normalized growth [11]?
A: Its normalized growth is inconclusive: 0.541 [sensitive].

Q: Which results are given for `Nc1ccc(Oc2ccc(Cl)cc2C2CCCCC2)nc1`?
A: normalized growth (locus YAL013W, strain DEP1, hits give low values): inconclusive: 0.603 [sensitive]; normalized growth (locus YDR150W, strain NUM1, hits give low values): inconclusive: 0.7 [sensitive]; normalized growth [12]: inconclusive: 0.704 [sensitive]

Q: For `C=CCc1ccccc1OCC(O)CNC(C)C` (stereo unspecified), which normalized growth [13] is on record?
A: Its normalized growth is inconclusive: 0.88 [sensitive].

Q: Which normalized growth [14] does the source give for `NC(=O)NO` here?
A: Its normalized growth is inconclusive: 0.791 [sensitive].

Q: What about the normalized growth [15] of the same molecule?
A: Its normalized growth is inconclusive: 0.904 [sensitive].

Q: What about the normalized growth [13] of the same molecule?
A: The normalized growth was inconclusive: 0.911 [sensitive].

Q: With `Cc1ccc(S(=O)(=O)Nc2nc(-c3ccc(C)c(Cl)c3)c(C)s2)cc1` as the molecule, how does the normalized growth (locus YGR052W, strain FMP48, hits give low values) read?
A: The normalized growth was inconclusive: 1.5 [resistant].

Q: What about the normalized growth (locus YHR082C, strain KSP1, hits give low values) of the same molecule?
A: Its normalized growth is inconclusive: 1.7 [resistant].

Q: What about the normalized growth (locus YJR066W, strain TOR1, hits give low values) of the same molecule?
A: The normalized growth was inconclusive: 1.75 [resistant].

Q: What about the normalized growth [12] of the same molecule?
A: The normalized growth was inconclusive: 1.35 [resistant].

Q: Which normalized growth [16] does the source give for `CCCC(C(=O)OCCN(CC)CC)(c1ccccc1)c1ccccc1` here?
A: Its normalized growth is inconclusive: 1.26 [resistant].

Q: What about the normalized growth [15] of the same molecule?
A: The normalized growth was inconclusive: 0.859 [sensitive].

Q: Which normalized growth (locus YER155C, strain BEM2 (second series), hits give low values) does the source give for `Cc1[nH]c2ccccc2c1CN(C)C` here?
A: Its normalized growth is inconclusive: 0.829 [sensitive].

Q: For `O=C(CSC1=NNC(c2ccccn2)S1)Nc1ccccc1` (stereo unspecified), which normalized growth (locus YHR030C, strain SLT2, hits give low values) is on record?
A: The normalized growth was inconclusive: 1.22 [resistant].

Q: With `CC(=O)OC1C(=O)C2(C)C(O)CC3OCC3(OC(C)=O)C2C(OC(=O)c2ccccc2)C2(O)CC(OC(=O)C(O)C(NC(=O)c3ccccc3)c3ccccc3)C(C)=C1C2(C)C` (stereo unspecified) as the molecule, how does the normalized growth [17] read?
A: Its normalized growth is inconclusive: 0.791 [sensitive].

Q: What about the normalized growth [15] of the same molecule?
A: The normalized growth was inconclusive: 0.85 [sensitive].

Q: And the normalized growth [18]?
A: Its normalized growth is inconclusive: 0.801 [sensitive].

Q: With `CCOC(=O)c1ccc(N=Cc2cc(Cl)cc(Cl)c2O)cc1` as the molecule, how does the normalized growth [5] read?
A: Its normalized growth is inconclusive: 0.842 [sensitive].

Q: Which normalized growth [2] does the source give for `N/C(CCSc1ccc(Cl)cc1)=N/OC(=O)Nc1ccc(Cl)cc1` here?
A: Its normalized growth is inconclusive: 0.555 [sensitive].

Q: What about the normalized growth [3] of the same molecule?
A: The normalized growth was inconclusive: 0.547 [sensitive].

Q: What about the normalized growth [4] of the same molecule?
A: The normalized growth was inconclusive: 0.533 [sensitive].

Q: And the normalized growth [5]?
A: The normalized growth was inconclusive: 0.533 [sensitive].

Q: And the normalized growth [6]?
A: Its normalized growth is inconclusive: 0.533 [sensitive].

Q: And the normalized growth [7]?
A: Its normalized growth is inconclusive: 0.542 [sensitive].

Q: What about the normalized growth [8] of the same molecule?
A: Its normalized growth is inconclusive: 0.529 [sensitive].

Q: And the normalized growth (locus YMR001C, strain CDC5, hits give low values)?
A: The normalized growth was inconclusive: 0.57 [sensitive].

Q: And the normalized growth [9]?
A: Its normalized growth is inconclusive: 0.529 [sensitive].

Q: And the normalized growth (locus YNL161W, strain CBK1, hits give low values)?
A: Its normalized growth is inconclusive: 0.56 [sensitive].

Q: And the normalized growth (locus YNL207W, strain RIO2, hits give low values)?
A: The normalized growth was inconclusive: 0.868 [sensitive].

Q: And the normalized growth (locus YNL222W, strain SSU72, hits give low values)?
A: The normalized growth was inconclusive: 0.55 [sensitive].

Q: What about the normalized growth [10] of the same molecule?
A: The normalized growth was inconclusive: 0.526 [sensitive].

Q: What about the normalized growth (locus YOR329C, strain SCD5, hits give low values) of the same molecule?
A: The normalized growth was inconclusive: 0.844 [sensitive].

Q: And the normalized growth (locus YPR025C, strain CCL1, hits give low values)?
A: Its normalized growth is inconclusive: 0.835 [sensitive].

Q: What about the normalized growth (strain NNK1, hits give low values) of the same molecule?
A: The normalized growth was inconclusive: 0.763 [sensitive].

Q: And the normalized growth [11]?
A: Its normalized growth is inconclusive: 0.537 [sensitive].

Q: With `COc1ccccc1OCCNCC(O)COc1cccc2[nH]c3ccccc3c12` (stereo unspecified) as the molecule, how does the normalized growth [16] read?
A: The normalized growth was inconclusive: 1.11 [resistant].

Q: Which normalized growth [15] does the source give for `CCCOC(=O)c1c(-c2ccccc2)nc(CC)c(C(=O)SCC)c1CCC` here?
A: Its normalized growth is inconclusive: 1.11 [resistant].

Q: For `CC(=O)Oc1cccc(C(=O)O)c1OC(C)=O`, which normalized growth (locus YOL012C, strain htz1) is on record?
A: Its normalized growth is inconclusive: 2.36 [resistant].

Q: With `O=C(NCCNc1ncc(Cl)cc1C(F)(F)F)C(F)(F)Sc1ccccc1` as the molecule, how does the normalized growth [19] read?
A: The normalized growth was inconclusive: 1.14 [resistant].

Q: Which normalized growth (locus YDR137W, strain rgp1, hits give low values) does the source give for `CC1=CC(=O)C2C(C)(C)CCC[C@]2(C)[C@@]1(O)CCc1ccoc1` (stereo partly specified) here?
A: Its normalized growth is active: 0.825.

Q: And the normalized growth (locus YDR392W, strain spt3, hits give low values)?
A: The normalized growth was active: 0.628.

Q: And the normalized growth (locus YLR262C, strain YPT6 (second series), hits give low values)?
A: Its normalized growth is active: 0.835.

Q: What about the normalized growth (locus YNL071W, strain lat1, hits give low values) of the same molecule?
A: Its normalized growth is active: 0.902.

Q: With `S=P(N1CC1)(N1CC1)N1CC1` as the molecule, how does the normalized growth (locus YDL185W, strain tfp1, hits give low values) read?
A: The normalized growth was inconclusive: 0.877 [sensitive].

Q: Which normalized growth (locus YCL029C, strain bik1, hits give low values) does the source give for `CC(CN1c2ccccc2Sc2ccccc21)N(C)C` (stereo unspecified) here?
A: The normalized growth was inconclusive: 0.879 [sensitive].

Q: For `O=C1c2ccccc2-c2n[nH]c3cccc1c23`, which normalized growth [14] is on record?
A: The normalized growth was inconclusive: 0.922 [sensitive].

Q: With `CC(=O)O[C@@H]1C=C[C@@]2(C)C(C[C@@H](OC(C)=O)[C@@]3(C)C4=CC(=O)O[C@@H](c5ccoc5)[C@]4(C)CCC23)C1(C)C` (stereo partly specified) as the molecule, how does the normalized growth (locus YOL012C, strain htz1) read?
A: Its normalized growth is inconclusive: 0.205 [sensitive].

Q: For `CC(C)=CCc1c(O)cc2occ(-c3ccc4c(c3)OCO4)c(=O)c2c1O`, which normalized growth (locus YKL009W, strain mrt4, hits give low values) is on record?
A: Its normalized growth is inconclusive: 1.14 [resistant].

Q: For `CCOC(=O)C1=C(C)NC(C)=C(C(=O)OC)C1c1cccc([N+](=O)[O-])c1` (stereo unspecified), which normalized growth [17] is on record?
A: The normalized growth was inconclusive: 0.832 [sensitive].

Q: And the normalized growth [15]?
A: The normalized growth was inconclusive: 0.872 [sensitive].

Q: What about the normalized growth [13] of the same molecule?
A: Its normalized growth is inconclusive: 0.813 [sensitive].

Q: What about the normalized growth [18] of the same molecule?
A: The normalized growth was inconclusive: 0.751 [sensitive].

Q: For `COc1ccccc1N1CCN(CCN2C(=O)CC3(CCCC3)CC2=O)CC1`, which normalized growth [17] is on record?
A: Its normalized growth is inconclusive: 0.835 [sensitive].

Q: Which normalized growth (locus YFR010W, strain ubp6, hits give low values) does the source give for `OCC(O)CN1CCN(c2ccccc2)CC1` (stereo unspecified) here?
A: Its normalized growth is inconclusive: 0.887 [sensitive].

Q: Which normalized growth (locus YPR106W, strain ISR1, hits give low values) does the source give for `N#CC(C#N)=C/C=C(/Sc1nc2ccccc2s1)c1ccc(Br)cc1` here?
A: Its normalized growth is inconclusive: 0.683 [sensitive].

Q: What about the normalized growth (locus YPR111W, strain DBF20, hits give low values) of the same molecule?
A: The normalized growth was inconclusive: 0.704 [sensitive].

Q: Which normalized growth [19] does the source give for `CC1(C)C2CC[C@]3(C)C(C(=O)C=C4[C@@H]5C[C@@](C)(C(=O)O)CC[C@]5(C)CC[C@]43C)[C@@]2(C)CC[C@@H]1OC(=O)CCC(=O)O` (stereo partly specified) here?
A: The normalized growth was inconclusive: 1.2 [resistant].

Q: With `CCCN(CCC)[C@H]1CCc2c(F)ccc(O)c2C1` as the molecule, how does the normalized growth [17] read?
A: The normalized growth was inconclusive: 0.788 [sensitive].

Q: And the normalized growth [15]?
A: Its normalized growth is inconclusive: 0.796 [sensitive].

Q: For `C[C@@H]1CC[C@@]2(OC1)OC1C(O)C3C4CC[C@H]5C[C@H](O[C@@H]6O[C@H](CO)[C@H](O[C@@H]7O[C@H](CO)[C@@H](O)[C@H](O[C@@H]8OC[C@@H](O)[C@H](O)[C@H]8O)[C@H]7O[C@@H]7O[C@H](CO)[C@H](O)[C@H](O[C@@H]8O[C@H](CO)[C@@H](O)[C@H](O)[C@H]8O)[C@H]7O)[C@H](O)[C@H]6O)[C@H](O)C[C@]5(C)C4CC[C@]3(C)C1[C@@H]2C` (stereo partly specified), which normalized growth (locus YMR231W, strain pep5, hits give low values) is on record?
A: The normalized growth was inconclusive: 0.851 [sensitive].

Q: With `CC(=O)CC(=O)Nc1ccccc1Cl` as the molecule, how does the normalized growth (locus YHR087W, strain rtc3, hits give low values) read?
A: Its normalized growth is inconclusive: 1.13 [resistant].

Q: Which normalized growth (locus YJR043C, strain POL32, hits give low values) does the source give for `COc1ccc(C2Sc3ccccc3N(CCN(C)C)C(=O)C2OC(C)=O)cc1` (stereo unspecified) here?
A: The normalized growth was inconclusive: 0.827 [sensitive].

Q: What about the normalized growth (locus YNL248C, strain rpa49, hits give low values) of the same molecule?
A: Its normalized growth is inconclusive: 0.885 [sensitive].
